{
  "source": "paper PMC6919601",
  "about": "“Identification of Plasmodium dipeptidyl aminopeptidase allosteric inhibitors by high throughput screening” (PLoS ONE, 2019)",
  "note": "Out of some 110,000 compounds screened, about 230 (0.21%) showed an effect of 50% or more. This is one part of the list.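 Also: 30 min substrate incubation versus DMSO and 10 µM JCP410 controls.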",
  "data": [
    {"biological_target": "DPAP1 (Plasmodium falciparum, UniProt Q8IIJ9)", "sequence (Q8IIJ9 whole entry, looked up)": "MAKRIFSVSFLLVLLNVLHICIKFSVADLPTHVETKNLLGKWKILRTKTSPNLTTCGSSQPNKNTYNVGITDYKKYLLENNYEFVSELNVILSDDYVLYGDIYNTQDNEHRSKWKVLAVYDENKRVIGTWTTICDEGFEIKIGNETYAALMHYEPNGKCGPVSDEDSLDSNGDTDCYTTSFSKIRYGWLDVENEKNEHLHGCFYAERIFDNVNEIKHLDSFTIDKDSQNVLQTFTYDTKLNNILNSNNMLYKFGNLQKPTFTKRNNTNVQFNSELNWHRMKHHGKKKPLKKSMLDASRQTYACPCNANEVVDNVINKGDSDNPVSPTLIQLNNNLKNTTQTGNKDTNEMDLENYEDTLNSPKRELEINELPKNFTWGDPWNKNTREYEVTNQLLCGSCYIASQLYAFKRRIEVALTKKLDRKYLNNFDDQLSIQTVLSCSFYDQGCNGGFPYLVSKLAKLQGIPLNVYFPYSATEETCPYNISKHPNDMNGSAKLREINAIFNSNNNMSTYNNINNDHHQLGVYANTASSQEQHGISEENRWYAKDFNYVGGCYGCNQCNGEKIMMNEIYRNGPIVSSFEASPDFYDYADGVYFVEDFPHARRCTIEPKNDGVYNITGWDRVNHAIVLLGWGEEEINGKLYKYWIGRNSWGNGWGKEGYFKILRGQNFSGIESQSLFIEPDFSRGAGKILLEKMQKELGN", "assay": "primary screen, percent inhibition; read by cleavage of a fluorogenic dipeptide substrate; higher = more effect of the substance", "design": "species or system P. falciparum D10 trophozoite lysates; single well", "units": {"% Inhibition @ 10 uM": "%"}, "values": [
      {"smiles": "CCOc1ccc2nc(N3CCC(C(=O)NCc4ccccn4)CC3)sc2c1", "% Inhibition @ 10 uM": 0.137},
      {"smiles": "NC(=O)C1CCN(C(=O)Cn2ncc3c4ccccc4n(Cc4cccc(Cl)c4)c3c2=O)CC1", "% Inhibition @ 10 uM": 3.4},
      {"smiles": "CC(=O)c1cccc(NC(=O)COc2ccc(Br)cc2C)c1", "% Inhibition @ 10 uM": 2.95},
      {"smiles": "O=S(=O)(NCc1ccc(CNS(=O)(=O)c2ccccc2)cc1)c1ccccc1", "% Inhibition @ 10 uM": 0.389},
      {"smiles": "O=C(O)C1CC(=O)N(CCc2ccccc2)/C(=N/CCc2ccccc2)S1", "note": "(stereo not shown)", "% Inhibition @ 10 uM": 5.12},
      {"smiles": "CC1(C)CCCC(C)(C)N1CC(O)COCCOc1ccc(Br)cc1", "note": "(stereo not shown)", "% Inhibition @ 10 uM": 2.84},
      {"smiles": "CCC(C)Nc1nc(Nc2ccc([N+](=O)[O-])cc2)nc(OC(C(F)(F)F)C(F)(F)F)n1", "note": "(stereo not shown)", "% Inhibition @ 10 uM": -2.51},
      {"smiles": "c1ccc(Cc2cn3c(-c4ccccc4)cnc3s2)cc1", "% Inhibition @ 10 uM": 2.26},
      {"smiles": "COc1ccc(CNC(=O)c2c(C)cc(=O)oc2C)cc1", "% Inhibition @ 10 uM": -2.26},
      {"smiles": "COc1ccc(CNC2CCCC2)c2ccccc12", "% Inhibition @ 10 uM": -1.15},
      {"smiles": "Cn1c(=O)c2nc(N)[nH]c2n(C)c1=O", "% Inhibition @ 10 uM": 1.84},
      {"smiles": "CN(C)c1ccc(/C=C2\\C(=O)N(c3ccccc3)N=C2C(=O)O)cc1", "% Inhibition @ 10 uM": 1.91},
      {"smiles": "CCN(CC)CCNc1nc(C)cc(COC)c1C(N)=O", "% Inhibition @ 10 uM": 7.99},
      {"smiles": "CCOC(=O)N1CCN(S(=O)(=O)c2c(C)nc(O)nc2O)CC1", "% Inhibition @ 10 uM": -5.76},
      {"smiles": "CCOC(=O)C1=C(CN2CCN(Cc3ccc4c(c3)OCO4)CC2)NC(=O)NC1c1ccc(F)cc1", "note": "(stereo not shown)", "% Inhibition @ 10 uM": 5.1},
      {"smiles": "O=C(Nc1ccc(Sc2nc3ccccc3s2)c(Cl)c1)c1cc(Cl)cc(Cl)c1O", "% Inhibition @ 10 uM": 10.2},
      {"smiles": "CCCCc1ccc(C(=O)N[C@@H](CC(C)C)C(=O)NCC#N)cc1", "% Inhibition @ 10 uM": -1.41},
      {"smiles": "Cc1cccc(NC(=O)CN2C(=O)N/C(=C/c3cc(C)n(-c4cc(C)ccn4)c3C)C2=O)c1", "% Inhibition @ 10 uM": 2.98},
      {"smiles": "C=CCc1cc(/C=C/c2ccc3c(c2)OCO3)c(O)c(OC)c1", "% Inhibition @ 10 uM": -2.86},
      {"smiles": "O=C(O)/C(=C/C=C/c1ccccc1)NC(=O)c1ccccc1", "% Inhibition @ 10 uM": -6.69},
      {"smiles": "O=C(NCCn1ccc2ccccc21)c1ccc(-c2ccccc2)cc1", "% Inhibition @ 10 uM": 0.205},
      {"smiles": "O=S(=O)(NCc1ccccc1Cl)c1c[nH]cn1", "% Inhibition @ 10 uM": 1.23},
      {"smiles": "O=C(O)c1ccc(N2C(=O)C3C4c5ccccc5C(c5ccccc54)C3C2=O)cc1", "note": "(stereo not shown)", "% Inhibition @ 10 uM": 4.82},
      {"smiles": "O=C(O)CCCNC(=O)c1cn(-c2ccccc2)nc1-c1ccccc1", "% Inhibition @ 10 uM": 3.98},
      {"smiles": "Cc1cc(O)c(C(=O)/C=C/c2ccccc2)c(=O)o1", "% Inhibition @ 10 uM": 1.63},
      {"smiles": "CCN(CC)CCNC(=O)c1cnn(C)c1C1CCN(C(=O)OC(C)(C)C)CC1", "% Inhibition @ 10 uM": 0.536},
      {"smiles": "COCC(C)NCc1cccc(C(F)(F)F)c1", "note": "(stereo not shown)", "% Inhibition @ 10 uM": -3.32},
      {"smiles": "CN(CCc1ccccn1)C1CCCCCC1", "% Inhibition @ 10 uM": -0.0908},
      {"smiles": "Cc1ccc2c(CNCCc3ccccc3Cl)c(C(=O)O)n(Cc3ccc(F)cc3Cl)c2c1", "% Inhibition @ 10 uM": 5.12},
      {"smiles": "CN1C(=O)C(C2(C#N)CCCCC2)C(=O)N(C)C1=O", "% Inhibition @ 10 uM": -2.42},
      {"smiles": "CCN1CCCC1CNC(=O)CCc1nnc2n(CCc3ccccc3)c(=O)c3ccccc3n12", "note": "(stereo not shown)", "% Inhibition @ 10 uM": -0.692},
      {"smiles": "Cc1nn(-c2ccc(F)cc2)c(-n2cccc2)c1C(=O)NCCN(C)C", "% Inhibition @ 10 uM": -7.44},
      {"smiles": "CCOc1ccccc1C1=NC(C(F)(F)F)(C(F)(F)F)N=C(N(C)C)O1", "% Inhibition @ 10 uM": -5.4},
      {"smiles": "O=C(O)CCCCCNCc1ccccc1", "% Inhibition @ 10 uM": -7.57},
      {"smiles": "COCc1cc(C)nc(N)c1C(=O)NCC12CC3CC(CC(C3)C1)C2", "% Inhibition @ 10 uM": -1.17},
      {"smiles": "Cc1cc(C)n(C(=O)c2cc(Cl)nc3ccccc23)n1", "% Inhibition @ 10 uM": -5.28},
      {"smiles": "CC(C)(C)NC(=O)c1oc2ccccc2c1NC(=O)c1c(F)cccc1F", "% Inhibition @ 10 uM": 1.06},
      {"smiles": "COc1cccc(C(=O)N2c3ccccc3C(N(C(C)=O)c3ccccc3)CC2C)c1", "note": "(stereo not shown)", "% Inhibition @ 10 uM": 0.851},
      {"smiles": "N#CCc1ccc(NC(=O)c2ccccc2F)cc1", "% Inhibition @ 10 uM": -3.72},
      {"smiles": "CCN1C(=O)c2ccc(F)cc2C1=O", "% Inhibition @ 10 uM": 0.962},
      {"smiles": "COc1cc(OC)nc(NC(=O)CSc2nc3nc(C)cc(C)n3n2)n1", "% Inhibition @ 10 uM": 1.67},
      {"smiles": "Cc1cnc(C)c(NC2CCCC2)n1", "% Inhibition @ 10 uM": -4.8},
      {"smiles": "CCC(=O)CC(O)c1ccc([N+](=O)[O-])cc1", "note": "(stereo not shown)", "% Inhibition @ 10 uM": 1.49},
      {"smiles": "COc1ccccc1NC1=C(Cl)C(=O)N(c2cc(Cl)ccc2OC)C1=O", "% Inhibition @ 10 uM": 2.36},
      {"smiles": "COc1ccccc1N1CCN(C(=O)CCc2ccccc2)CC1", "% Inhibition @ 10 uM": -2.17},
      {"smiles": "COc1ccc(N2C(=O)C(Cl)=C(Nc3cccc(Cl)c3)C2=O)cc1", "% Inhibition @ 10 uM": -4.48},
      {"smiles": "CC(=O)N1CCn2c1nc(N(C)C)nc2=O", "% Inhibition @ 10 uM": 5.2},
      {"smiles": "CCOC(=O)N1CCC(Nc2cc(C)c(C#N)c3nc4ccccc4n23)CC1", "% Inhibition @ 10 uM": -3.75},
      {"smiles": "CCSc1ncc(Cl)c(C(=O)Nc2nnc(C(C)C)s2)n1", "% Inhibition @ 10 uM": -2.85},
      {"smiles": "O=C(NC1CCCCC1)C1CCCN(S(=O)(=O)c2cccc3cccnc23)C1", "note": "(stereo not shown)", "% Inhibition @ 10 uM": -12.4},
      {"smiles": "COc1ccc(C2C(C#N)=C(N)Oc3[nH]nc(C(C)(C)C)c32)cc1", "note": "(stereo not shown)", "% Inhibition @ 10 uM": -0.661},
      {"smiles": "Cc1nc2ccc(S(=O)(=O)NC(C(=O)N3CCC(C)CC3)C(C)C)cc2s1", "note": "(stereo not shown)", "% Inhibition @ 10 uM": -9.07},
      {"smiles": "CCOc1ccccc1CN1CCN(C)CC1", "% Inhibition @ 10 uM": -1.86},
      {"smiles": "Fc1ccccc1-c1nnc(-c2cccc(C(F)(F)F)c2)o1", "% Inhibition @ 10 uM": -4.3},
      {"smiles": "N#Cc1c(C(F)(F)F)cc(-c2ccccc2)nc1SCc1nc(N)nc(N2CCOCC2)n1", "% Inhibition @ 10 uM": 5.18},
      {"smiles": "O=C1CC(Nc2ccccc2)=NN1c1ccccc1", "% Inhibition @ 10 uM": 2.45},
      {"smiles": "CCCC(=O)Nc1ccc(C=C2C(=O)c3ccccc3C2=O)cc1", "% Inhibition @ 10 uM": 1.4},
      {"smiles": "COc1cc(C2C3=C(O)CC(C)(C)CC3=Nc3nc4ccccc4n32)cc(OC)c1OC", "note": "(stereo not shown)", "% Inhibition @ 10 uM": -1.62},
      {"smiles": "CCCNC(=O)c1cnn2c(C)c(Cc3ccc(Cl)cc3)c(C)nc12", "% Inhibition @ 10 uM": -2.14},
      {"smiles": "Cc1cc(C)c2nc(Nc3nc(C)cc(C)n3)nc(C)c2c1", "% Inhibition @ 10 uM": 9.41},
      {"smiles": "C=CCn1c(SCCCC)nc2c1c(=O)n(C)c(=O)n2C", "% Inhibition @ 10 uM": -6.38},
      {"smiles": "CCOC(=O)C1CCCN(Cc2ccc(OC)c(Br)c2)C1", "note": "(stereo not shown)", "% Inhibition @ 10 uM": -0.0404},
      {"smiles": "Cc1cc2nc(-c3cccc(NC(=O)Cn4cnc5c(=O)n(C)c(=O)n(C)c54)c3)oc2cc1C", "% Inhibition @ 10 uM": -2.28},
      {"smiles": "CC(C)CCNC(=O)Cn1cnc2onc(-c3ccc(F)cc3)c2c1=O", "% Inhibition @ 10 uM": 0.535}
    ]}
  ]
}
